Experimental data taken from patent publication US20230130103A1, “TARGETED PHARMACOLOGICAL THERAPEUTICS IN UVEAL MELANOMA” (Washington University, priority 2017, published 2023).
pEC50: −log10 of the molar value. Starred links: 1 amine or outer side, 2 acyl side, 3 side chain; linkers in the order of their positions; H or OH if unused. Positions of bridges follow the written chain, without caps; N, C: chain ends. Non-standard residues stand in square brackets, D forms with d. Residues, ends and D or L forms follow the SMILES beside them. *: point of attachment. Leu(3R-OH,Nα-propionyl) = CCC(=O)N[C@H](C(=O)*)[C@H](O)C(C)C; X1 = CC(C)[C@@H](O[*:3])[C@H](N[*:1])C(=O)[*:2]; X2 = CC(C)[C@H](O[*:3])[C@@H](N[*:1])C(=O)[*:2]; NMeaThr = CN[C@H](C(=O)O)[C@H](C)O; dPhLac = O=C(O)[C@H](O)Cc1ccccc1; NMeA = CN[C@@H](C)C(=O)O; NMeDha = C=C(NC)C(=O)O

Assays:
[1] = test system: Gαq(Q209L)-driven 92.1 cells; experiment: IP1 accumulation in UM cells (IP-One kit); type: cell-based, Human; conditions: FIG. 3B
Text: (§1) Inhibition of signaling by constitutively active Gαq in UM cultured cell lines was quantified by measuring intracellular inositol 1-phosphate (IP1), a metabolically stable product of inositol 1,4,5-trisphosphate produced by Gαq-stimulated phospholipase Cβ. FIG. 3A Basal IP1 levels in UM cell lines driven by constitutively active Gαq (92.1 and Mel202) and BRAF (OCM-1A). FIG. 3B Effects of FR on IP1 levels in 92.1, Mel202 and OCM-1A cells. *p<0.01.
(§2) A third UM cell line (OCM-1A) driven by constitutively active BRAF(V600E) served as a negative control. Signaling by Gαq-stimulated phospholipase Cβ was quantified based on levels of inositol monophosphate (IP1), a metabolically stable product of inositol 1,4,5-trisphosphate (IP3) produced by cleavage of phosphatidylinositol 4,5-bisphosphate (PIP2). […] FR reduced IP1 levels in Mel202 and 92.1 cells >50-fold (FIG. 3B), but had only modest effect (˜2-fold) on OCM-1A cells (FIG. 3B).
(§3) Accumulation of IP1 in UM cells was measured using the IP-One kit (CiSbio, Inc; catalog number 62IPAPEB) according to the supplier's instructions. 10,000 Mel 202 cells, 20,000 92.1 cells and 20,000 OCM 1A cells were seeded into white-bottom tissue culture grade 384-well plates. Following an overnight incubation, cells were treated with FR or DMSO and returned to the incubator. […] Plates were read in a Synergy H4 Hybred Reader (BioTek, Winooski, Vt., USA). […]

[2] = test system: Gαq(Q209L)-driven Mel202 cells; experiment: IP1 accumulation in UM cells (IP-One kit); type: cell-based, Human; conditions: FIG. 3B
Text: as §1, §2, §3

[3] = test system: transgenic UM tumors driven by Gαq(Q209L); experiment: Transgenic mouse model of UM, intravitreal injection, RNA-Seq of tumors; type: in vivo; conditions: intravitreal FR, expected result of planned experiment
Text: Next we will determine whether FR targets primary ocular tumors in a transgenic mouse model of UM. […] This model has key advantages over transplant models. First, it is highly penetrant and reproducible. Occular tumors occur in 100% of mice within 4 weeks of age. Second, hematogenous dissemination of tumor cells to the lung occurs in >90% of mice by 3 months of age, making this transgenic model well suited for determining whether FR inhibits metastatic dissemination or growth. […] In contrast, tumor xenografts develop intravitreally are inappropriate for indicating how tumors arising within the uveal tract might respond to FR.
Transgenic uveal melanoma tumors will be imaged non-invasively, by spectral-domain optical coherence tomography (SD-OCT) and angiography. These techniques enable ocular tumor volume and blood supply recruitment to be followed over time. Baseline images will be acquired in 4-week old mice when tumors are small but evident. […] Inhibition of tumor growth as a function of FR concentration will be determined. Tumors will be harvested and analyzed by immunoblotting or immunohistochemistry for the activity state of signaling pathways downstream of constitutively active Gαq/11 in UM (YAP; MEK), to determine dose of FR is sufficient to inhibit constitutively active Gαq signaling in tumors. […]

[4] = molecular target: T1, constitutively active Gαq(Q209L) interacting with Gβγ2 (Homo sapiens, UniProt P50148, Q209L); experiment: Split luciferase complementation, Gα interaction with Gβγ2; type: cell-based; conditions: HEK-293 cells, 18 h, FIG. 1B, read-out: EC50, increase of split luciferase complementation
T1 construct: expressed in transfected cells; host or cells: HEK-293
Text: (§4) (FIG. 1A-1C) depicts the effect of FR on the activity state of Gα subunits as determined by interaction with Gβγ or RGS domains in split luciferase complementation assays. FIG. 1A Effect of FR on interaction of Gβγ2 with the indicated wild type (WT) or mutant constitutively active (Q/L) forms of Gα (q) or Gα13 (13). * p<0.01; ** p<0.05. FIG. 1B Potency of FR as a driver of interaction of Gβγ2 with wild type or mutant constitutively active Gαq. FIG. 1C Potency of FR as inhibitor of interaction of RGS2 with mutant constitutively active (Q/L) Gαq, or interaction of the RGS domain of LARG (LARG-RGS) with mutant constitutively active Gα13. FIG. 1D Potency of FR as inhibitor of signal transduction by constitutively active Gαq or Gα13 detected with an SRE(L) promoter-driven transcriptional reporter. Constitutively active Gαq (Q/L), constitutively active Gαq bearing the indicated FR binding site mutations, and constitutively Gα13 (Q/L) were studied.
(§5) To detect protein-protein interactions, a split luciferase complementation assays was used (23), as employed to study activation state-dependent interaction between Gα subunits and cognate binding partners (24).
(§6) Split luciferase assays were performed as described (24). […]

[5] = molecular target: T2, constitutively active Gαq and RGS2 (Homo sapiens, UniProt P50148, Q209L); experiment: Split luciferase complementation, Gα interaction with RGS2; type: cell-based; conditions: HEK-293 cells, FIG. 1C
T2 construct: expressed in transfected cells; host or cells: HEK-293
Text: as §4, §5, §6

T2 sequence (P50148 whole entry Q209L): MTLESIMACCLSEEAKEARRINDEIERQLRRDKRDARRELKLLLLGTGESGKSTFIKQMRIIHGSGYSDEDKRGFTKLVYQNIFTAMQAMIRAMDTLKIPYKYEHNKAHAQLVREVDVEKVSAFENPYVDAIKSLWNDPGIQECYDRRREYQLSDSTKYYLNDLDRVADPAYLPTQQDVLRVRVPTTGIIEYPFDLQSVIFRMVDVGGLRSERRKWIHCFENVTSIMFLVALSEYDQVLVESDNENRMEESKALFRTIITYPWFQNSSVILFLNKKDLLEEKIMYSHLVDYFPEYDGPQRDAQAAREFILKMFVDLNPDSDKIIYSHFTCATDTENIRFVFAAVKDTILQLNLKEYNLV
T1 sequence (P62873 whole entry): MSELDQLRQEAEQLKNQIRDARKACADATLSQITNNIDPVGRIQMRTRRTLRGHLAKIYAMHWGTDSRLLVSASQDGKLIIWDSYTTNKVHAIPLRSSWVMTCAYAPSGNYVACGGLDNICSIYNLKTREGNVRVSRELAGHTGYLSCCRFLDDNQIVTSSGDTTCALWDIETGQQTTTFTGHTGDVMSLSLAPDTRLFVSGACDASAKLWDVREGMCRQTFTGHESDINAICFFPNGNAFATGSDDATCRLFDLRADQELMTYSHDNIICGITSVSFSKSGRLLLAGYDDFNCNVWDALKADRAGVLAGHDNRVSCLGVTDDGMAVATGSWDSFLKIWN
T1 sequence (P50148 whole entry Q209L): as the sequence (P50148 whole entry Q209L) above
T1 sequence (P59768 2-68, further chain): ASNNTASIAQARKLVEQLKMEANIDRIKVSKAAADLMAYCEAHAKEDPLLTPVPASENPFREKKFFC

Structure (SMILES): C=C1C(=O)N[C@@H](C)C(=O)N(C)[C@@H](C)C(=O)N[C@H]([C@@H](OC(=O)[C@@H](NC(=O)CC)[C@H](O)C(C)C)C(C)C)C(=O)N(C)[C@@H]([C@H](C)OC)C(=O)O[C@H](C(C)C)[C@H](NC(C)=O)C(=O)O[C@H](Cc2ccccc2)C(=O)N1C [FR, [(1S)-1-[(3S,6R,9S,12S,18R,21S,22R)-21-acetamido-18-benzyl-3-[(1S)-1-methoxyethyl]-4,9,10,12,16-pentamethyl-15-methylidene-2,5,8,11,14,17,20-heptaoxo-22-propan-2-yl-1,19-dioxa-4,7,10,13,16-pentazacyclodocos-6-yl]-2-methylpropyl] (2S,3R)-3-hydroxy-4-methyl-2-(propanoylamino)pentanoate] (Ac-[X1][dPhLac][NMeDha]A[NMeA][X2](Leu(3R-OH,Nα-propionyl))[NMeaThr](Me); ester 1-C)
- reduction of IP1 levels [1]: > 50 fold
- reduction of IP1 levels [2]: > 50 fold
- silencing of PRC2-regulated genes in transgenic UM tumors [3]: will reinstate silencing of PRC2-regulated genes
- pEC50 [4]: 8.05
- IC50, inhibition of interaction with RGS2 [5]: 0.4 nM
